# According to PubChem BioAssay (NCATS):
# The inconclusive results got no clear call from the source; some entries with a clear call stand among them for comparison. For some assays here: Potencies beside an inconclusive call are fits to weak or partial responses and may not hold up. Activity calls are given as the source filed them. Unless noted, calls come from the whole dose curve; as a rule, active = well fitted curve in the direction sought with a large enough effect; inconclusive = small, poorly fitted or top-dose-only effect, or another doubt; inactive = no such curve, though single readings can be large; an effect the other way counts as inactive or inconclusive.
# What was measured:
# [1] = target: 3',5'-cyclic-AMP phosphodiesterase 4B (Homo sapiens) (UniProt Q07343); experiment: qHTS Assay for Inhibitors of PDE-IV (AID 607; active = well fitted activation curve with a large enough effect in the main read-out, with a control signal flat, not every such curve was filed as active; inconclusive = small, poorly fitted or top-dose-only effect, or effect the other way, or a change in a side signal; note: potency is the fitted concentration of half-maximal effect; for activation (PDE inhibition): % of control where 0% means no effect); conditions: HEK293 ACTOne CNG channel cells, membrane potential fluorescence; activation (PDE inhibition): at 22.9 µM (top of the series)
# Chain of UniProt Q07343 (Q07343 whole entry, looked up): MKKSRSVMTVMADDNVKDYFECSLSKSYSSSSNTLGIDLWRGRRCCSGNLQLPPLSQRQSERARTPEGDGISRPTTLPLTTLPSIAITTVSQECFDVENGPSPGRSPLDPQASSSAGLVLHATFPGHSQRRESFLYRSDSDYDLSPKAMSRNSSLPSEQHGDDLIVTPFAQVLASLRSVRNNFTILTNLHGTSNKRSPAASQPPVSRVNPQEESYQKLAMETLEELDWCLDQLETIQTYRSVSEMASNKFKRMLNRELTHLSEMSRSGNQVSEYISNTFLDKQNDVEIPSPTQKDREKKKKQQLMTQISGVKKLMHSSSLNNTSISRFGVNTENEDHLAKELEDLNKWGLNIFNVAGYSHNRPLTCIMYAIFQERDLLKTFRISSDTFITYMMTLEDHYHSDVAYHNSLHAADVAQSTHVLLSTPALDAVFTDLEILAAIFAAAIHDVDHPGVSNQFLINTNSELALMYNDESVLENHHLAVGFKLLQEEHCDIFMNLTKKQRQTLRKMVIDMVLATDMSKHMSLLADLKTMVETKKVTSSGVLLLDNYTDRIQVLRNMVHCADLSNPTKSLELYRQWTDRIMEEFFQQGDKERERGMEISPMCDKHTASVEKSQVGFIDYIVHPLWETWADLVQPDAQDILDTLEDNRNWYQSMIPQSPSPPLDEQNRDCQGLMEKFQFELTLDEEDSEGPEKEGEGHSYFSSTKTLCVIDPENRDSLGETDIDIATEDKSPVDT
# Method in brief: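 HEK293 ACTOne cells with CNG channel (1000/well), endogenous PDE4; membrane potential dye, compounds up to 22.9 uM final. Fluorescence Ex 535/Em 590; RO 20-1724 (100 uM final) as reference.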
# [2] = qHTS Assay for Identification of Small Molecule Antagonists for NFkB Signaling Pathway (AID 895; active = well fitted inhibition curve with a large enough effect in the signal ratio, with a control signal flat, not every such curve was filed as active; inconclusive = small, poorly fitted or top-dose-only effect, or effect the other way, or a change in a side signal; the % refers to the signal ratio; note: potency is the fitted concentration of half-maximal effect; for activity change, negative = inhibition: % is set by controls: 0 for no effect and ±100 for the full control effect); conditions: NFkB beta-lactamase reporter cells, FRET ratio 460/530, stimulated with 10 pM TNF alpha; activity change, negative = inhibition: at 38.3 µM (top of the series)
# Method in brief: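 ME-180 NFkB-bla cells (beta-lactamase under NFkB response element), plated overnight, treated with compound then 10 pM TNF alpha (about EC50) for 5 hrs at 37 C. LiveBLAzer FRET read at 460/530 nm emission, 405 nm excitation.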
# [3] = qHTS Assay for Identification of Small Molecule Agonists for Hypoxia Response Element Signaling Pathway (AID 914; active = well fitted activation curve with a large enough effect in the signal ratio, with a control signal flat, not every such curve was filed as active; inconclusive = small, poorly fitted or top-dose-only effect, or effect the other way, or a change in a side signal; the % refers to the signal ratio; note: potency is the fitted concentration of half-maximal effect; for activation: top concentration of the series differs between compounds; % of control where 0% means no effect); conditions: ME-180 (cervical carcinoma) HRE-bla reporter, beta-lactamase ratio, CoCl2, 17 h; activation: stronger effect = higher value
# Method in brief: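 Positive modulation of EC50 CoCl2-induced hypoxia response element signaling is measured in ME-180 cells with a beta-lactamase reporter. Compounds are titrated, incubation runs 17 hours, and %Activity derives from the blue/green ratio.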
# [4] = qHTS Assay for Identification of Small Molecule Agonists for Thrombopoietin (TPO) Signaling Pathway (AID 917); note: potency is the fitted concentration of half-maximal effect
# Method in brief: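 Murine Ba/F3 cells stably expressing human TPO receptor and a Glycoprotein IIb promoter–luciferase reporter were IL-3-starved overnight, then treated with compounds plus TPO (26 pM final, its EC50) for 24 hrs at 37 C; luminescence was read.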
# [5] = qHTS Assay for Identification of Small Molecule Antagonists for Thrombopoietin (TPO) Signaling Pathway (AID 918); conditions: TPO-dependent cell signaling reporter, antagonist mode; activity change, negative = inhibition: at 38.5 µM (top of the series); note: nearly all actives have a fitted effect of over 60% in size; note: potency is the fitted concentration of half-maximal effect
# Method in brief: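 Ba/F3 (murine, hTPO-R, GPIIb-luc reporter); overnight IL-3 withdrawal; cpd + TPO 26 pM final (EC50); 24 h 37 C/5% CO2; Steadylite luminescence after 10 min RT.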
# [6] = target: Muscarinic acetylcholine receptor M1 (Rattus norvegicus) (UniProt P08482); experiment: qHTS Assay for Antagonists of Acetylcholine Muscarinic M1 Receptor: Kinetic Measurement of Intracellular Calcium Response (AID 943); note: potency is the fitted concentration of half-maximal effect; nearly all actives have a fitted effect of over 75% in size
# Chain of UniProt P08482 (P08482 whole entry, looked up): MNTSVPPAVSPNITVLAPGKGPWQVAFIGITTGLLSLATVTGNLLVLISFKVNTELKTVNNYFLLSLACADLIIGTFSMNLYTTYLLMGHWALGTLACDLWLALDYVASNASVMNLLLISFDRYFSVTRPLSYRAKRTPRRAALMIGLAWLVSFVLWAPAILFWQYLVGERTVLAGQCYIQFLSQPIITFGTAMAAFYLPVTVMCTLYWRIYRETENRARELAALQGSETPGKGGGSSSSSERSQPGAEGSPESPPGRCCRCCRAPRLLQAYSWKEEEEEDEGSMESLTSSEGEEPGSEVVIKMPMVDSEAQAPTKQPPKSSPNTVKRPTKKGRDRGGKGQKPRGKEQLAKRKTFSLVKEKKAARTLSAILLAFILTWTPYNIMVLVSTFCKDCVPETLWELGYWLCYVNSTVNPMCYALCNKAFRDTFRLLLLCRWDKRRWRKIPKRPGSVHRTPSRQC
# Method in brief: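 Rat M1-CHO cells, 2000/well, overnight → Fluo-4 no-wash dye with probenecid, 1 h 37C → compound 10 min, room temp → basal read 6 s → carbachol EC80 (100 nM) → 4 min kinetic read; peak/basal.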
# [7] = target: Muscarinic acetylcholine receptor M1 (Rattus norvegicus) (UniProt P08482); experiment: qHTS Assay for Antagonists of Acetylcholine Muscarinic M1 Receptor: Measurement of IP-One Response (AID 944); note: nearly all actives have a fitted effect of over 75% in size
# [8] = target: Cytochrome P450 2C19 (Homo sapiens) (UniProt P33261); experiment: qHTS Assay for Inhibitors and Substrates of Cytochrome P450 2C19 (AID 899); conditions: recombinant CYP2C19, luciferin-H EGE luminescence; activity, negative = inhibition: at 11.4 µM (top of the series); note: potency is the fitted concentration of half-maximal effect; nearly all actives have a fitted effect of over 60% in size
# Chain of UniProt P33261 (P33261 whole entry, looked up): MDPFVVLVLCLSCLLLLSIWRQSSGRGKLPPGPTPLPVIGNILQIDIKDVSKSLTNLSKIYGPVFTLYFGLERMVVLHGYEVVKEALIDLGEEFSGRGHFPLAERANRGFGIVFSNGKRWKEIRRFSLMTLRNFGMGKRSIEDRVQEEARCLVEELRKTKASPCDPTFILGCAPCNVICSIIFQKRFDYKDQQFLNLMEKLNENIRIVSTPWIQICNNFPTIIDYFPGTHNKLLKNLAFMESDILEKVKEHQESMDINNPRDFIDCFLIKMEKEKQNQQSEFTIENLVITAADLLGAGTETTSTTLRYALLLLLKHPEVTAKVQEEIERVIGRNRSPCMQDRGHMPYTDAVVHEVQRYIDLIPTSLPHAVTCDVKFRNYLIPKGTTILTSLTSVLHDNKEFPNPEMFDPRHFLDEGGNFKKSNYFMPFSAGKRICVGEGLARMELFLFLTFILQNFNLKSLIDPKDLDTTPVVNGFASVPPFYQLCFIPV
# Method in brief: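 Signal comes from luciferase acting on luciferin released by CYP2C19-mediated hydroxylation of Luciferin-H EGE, 10uM (KM). Assay mix: 5nM enzyme, 50mM KPO4; 60 min at 37C with NADPH regeneration. Data normalized against 57uM ketoconazole.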
# [9] = target: Pyruvate kinase PKM (Homo sapiens) (UniProt P14618); experiment: qHTS Assay for Activators of Human Muscle Pyruvate Kinase (AID 954; active = well fitted curve in the direction sought with a large enough effect, not every such curve was filed as active; inconclusive = small, poorly fitted or top-dose-only effect, or effect the other way, or another doubt; inactive = no such curve, though single readings can be large or run the other way; note: potency is the fitted concentration of half-maximal effect;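 for activity change, negative = inhibition: 0% = uninhibited enzyme and -100% = no enzyme or full thiadiazolimine inhibition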)
# Chain of UniProt P14618 (P14618 whole entry, looked up): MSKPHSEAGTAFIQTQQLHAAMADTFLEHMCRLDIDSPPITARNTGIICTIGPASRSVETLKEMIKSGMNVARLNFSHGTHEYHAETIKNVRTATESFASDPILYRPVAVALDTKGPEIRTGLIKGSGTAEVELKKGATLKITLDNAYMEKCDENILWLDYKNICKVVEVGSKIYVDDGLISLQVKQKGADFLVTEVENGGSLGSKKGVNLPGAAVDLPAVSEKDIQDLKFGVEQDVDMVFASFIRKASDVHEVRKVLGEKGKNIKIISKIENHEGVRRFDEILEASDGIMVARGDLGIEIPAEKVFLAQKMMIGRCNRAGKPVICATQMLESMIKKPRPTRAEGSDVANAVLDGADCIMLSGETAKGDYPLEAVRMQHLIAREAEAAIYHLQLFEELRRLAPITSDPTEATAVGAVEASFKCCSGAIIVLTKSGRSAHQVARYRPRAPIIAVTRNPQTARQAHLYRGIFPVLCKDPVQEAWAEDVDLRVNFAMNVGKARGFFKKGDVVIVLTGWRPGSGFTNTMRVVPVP
# Method in brief: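 Purified human PKM2 (0.1 nM) with 0.5 mM PEP (Km) and 0.1 mM ADP in 50 mM imidazole pH 7.2, KCl, MgCl2, 1 h at room temperature; ATP formed read by coupled luciferase luminescence. Normalized to no-enzyme/110 uM thiadiazolimine inhibition; 0.3 nM enzyme column for activation.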
# [10] = target: Pyruvate kinase PKM (Homo sapiens) (UniProt P14618); experiment: qHTS Assay for Inhibitors of Human Muscle Pyruvate Kinase (AID 958)
# Method in brief: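 Human PKM2 activity is measured as ATP generation, detected by luciferase-coupled luminescence. The enzyme (0.1 nM) acts on 0.5 mM PEP and 0.1 mM ADP for 1 h at ambient temperature; data are normalized to uninhibited and full-inhibition wells.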
# [11] = target: Cytochrome P450 2D6 (Homo sapiens) (UniProt P10635); experiment: qHTS Assay for Inhibitors and Substrates of Cytochrome P450 2D6 (AID 891);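 note: luciferin methyl ether substrate demethylated by CYP2D6 with NADPH regeneration; nearly all actives have a fitted effect of over 60% in size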; note: potency is the fitted concentration of half-maximal effect; for activity change, negative = inhibition: top concentration of the series differs between compounds; % is set by controls: 0 for no effect and ±100 for the full control effect
# Chain of UniProt P10635 (P10635 whole entry, looked up): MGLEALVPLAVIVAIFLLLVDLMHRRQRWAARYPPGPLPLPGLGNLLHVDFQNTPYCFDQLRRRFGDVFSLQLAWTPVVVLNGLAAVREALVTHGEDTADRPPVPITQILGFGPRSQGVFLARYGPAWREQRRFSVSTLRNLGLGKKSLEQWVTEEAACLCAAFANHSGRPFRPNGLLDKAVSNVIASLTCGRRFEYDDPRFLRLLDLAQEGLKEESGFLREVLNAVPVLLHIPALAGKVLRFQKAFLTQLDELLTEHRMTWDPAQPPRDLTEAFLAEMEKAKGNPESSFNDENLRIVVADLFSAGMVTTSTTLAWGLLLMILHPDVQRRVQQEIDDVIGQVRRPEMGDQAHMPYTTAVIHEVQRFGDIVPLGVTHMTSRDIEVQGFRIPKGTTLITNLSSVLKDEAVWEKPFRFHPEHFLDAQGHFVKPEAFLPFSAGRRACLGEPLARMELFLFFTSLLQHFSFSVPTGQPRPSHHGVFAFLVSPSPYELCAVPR
# Method in brief: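 Human CYP2D6 (5 nM) with 30 uM Luciferin-ME EGE (at Km) in 100 mM KPO4, compound preincubated 10 min, then NADPH regeneration system for 60 min at room temperature. Luciferin read by luminescence; normalized to 1.43 uM quinidine.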
# [12] = target: ATPase family AAA domain-containing protein 5 (Homo sapiens) (UniProt Q96QE3); experiment: HTS assay for small molecules that inhibit ELG1-dependent DNA repair in human embryonic kidney (HEK293T) cells expressing luciferase-tagged ELG1: Hit Confirmation (AID 624248); note: nearly all actives have a fitted effect of over 55% in size; note: potency is the fitted concentration of half-maximal effect;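 for activity change, negative = inhibition: % is set by controls: 0 for no effect and ±100 for the full control effect; actives are inhibitors that lower the ELG1-luciferase luminescence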
# Chain of UniProt Q96QE3 (Q96QE3 whole entry, looked up, the tested form may be a part): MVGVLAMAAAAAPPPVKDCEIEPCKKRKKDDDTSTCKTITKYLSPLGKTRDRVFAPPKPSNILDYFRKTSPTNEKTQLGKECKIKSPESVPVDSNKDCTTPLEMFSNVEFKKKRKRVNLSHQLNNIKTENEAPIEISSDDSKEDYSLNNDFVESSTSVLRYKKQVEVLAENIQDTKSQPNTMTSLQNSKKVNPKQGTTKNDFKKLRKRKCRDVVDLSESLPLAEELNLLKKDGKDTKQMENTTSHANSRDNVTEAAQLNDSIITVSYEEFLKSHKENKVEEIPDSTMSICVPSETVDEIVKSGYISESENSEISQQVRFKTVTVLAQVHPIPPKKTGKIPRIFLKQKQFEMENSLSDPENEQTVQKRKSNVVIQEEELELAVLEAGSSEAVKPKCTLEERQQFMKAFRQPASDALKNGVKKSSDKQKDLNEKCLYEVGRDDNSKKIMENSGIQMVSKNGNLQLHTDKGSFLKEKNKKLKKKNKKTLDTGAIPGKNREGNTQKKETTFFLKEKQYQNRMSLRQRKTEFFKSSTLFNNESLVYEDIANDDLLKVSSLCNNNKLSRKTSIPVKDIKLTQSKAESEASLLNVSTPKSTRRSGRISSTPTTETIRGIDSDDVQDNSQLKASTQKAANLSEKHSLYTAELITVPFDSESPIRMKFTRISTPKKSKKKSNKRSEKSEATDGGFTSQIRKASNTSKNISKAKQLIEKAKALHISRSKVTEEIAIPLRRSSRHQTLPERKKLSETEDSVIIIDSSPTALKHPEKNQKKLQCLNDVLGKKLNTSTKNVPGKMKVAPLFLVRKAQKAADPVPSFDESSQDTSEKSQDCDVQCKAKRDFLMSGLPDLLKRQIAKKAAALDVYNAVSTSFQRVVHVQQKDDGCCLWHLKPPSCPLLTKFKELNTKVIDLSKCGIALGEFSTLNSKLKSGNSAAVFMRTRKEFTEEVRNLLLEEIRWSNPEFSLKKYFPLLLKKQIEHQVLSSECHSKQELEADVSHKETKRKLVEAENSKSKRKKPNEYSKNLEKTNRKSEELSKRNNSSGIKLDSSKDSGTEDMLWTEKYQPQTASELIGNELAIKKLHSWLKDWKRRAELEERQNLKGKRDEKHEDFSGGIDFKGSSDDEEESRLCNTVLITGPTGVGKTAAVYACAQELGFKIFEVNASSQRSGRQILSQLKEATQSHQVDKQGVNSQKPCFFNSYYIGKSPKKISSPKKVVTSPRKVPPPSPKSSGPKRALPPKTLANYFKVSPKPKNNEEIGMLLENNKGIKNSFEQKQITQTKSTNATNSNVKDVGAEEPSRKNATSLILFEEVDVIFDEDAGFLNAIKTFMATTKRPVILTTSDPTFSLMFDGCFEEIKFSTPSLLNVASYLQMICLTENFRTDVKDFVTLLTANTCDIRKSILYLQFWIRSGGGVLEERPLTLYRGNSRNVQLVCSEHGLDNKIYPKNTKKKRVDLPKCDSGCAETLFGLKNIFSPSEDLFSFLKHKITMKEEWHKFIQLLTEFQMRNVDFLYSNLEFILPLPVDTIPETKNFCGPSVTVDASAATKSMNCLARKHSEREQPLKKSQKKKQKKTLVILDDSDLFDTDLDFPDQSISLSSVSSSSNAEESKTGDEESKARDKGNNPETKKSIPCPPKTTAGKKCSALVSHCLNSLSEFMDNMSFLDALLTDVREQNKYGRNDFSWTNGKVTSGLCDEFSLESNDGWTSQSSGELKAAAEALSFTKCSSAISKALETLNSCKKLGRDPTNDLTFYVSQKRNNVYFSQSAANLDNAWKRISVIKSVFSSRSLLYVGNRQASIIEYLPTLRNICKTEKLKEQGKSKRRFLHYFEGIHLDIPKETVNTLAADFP
# Method in brief: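 HEK293T cells expressing luciferase-tagged ELG1 treated with 5-fluorouridine plus compound for 16 h at 37 C; luciferase activity then measured with ONE-Glo after 30 min at room temperature.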
# [13] = qHTS screen for small molecules that inhibit ELG1-dependent DNA repair: Hit Confirmation in Cell-Based Luciferin Assay (AID 624247); note: potency is the fitted concentration of half-maximal effect; for activity change, negative = inhibition: % is set by controls: 0 for no effect and ±100 for the full control effect
# Method in brief: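 Steps: dispense substrate; pin in compound or DMSO; add luciferase; image light output on CCD-based reader.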
# [14] = qHTS screen for small molecules that inhibit ELG1-dependent DNA repair: Hit Confirmation with 5FU Viability (AID 624250); note: potency is the fitted concentration of half-maximal effect
# Method in brief: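 Compounds are tested on ELG1-luc HEK293T cells in the presence of 5-fluorouridine (final 10 µM). Viability is measured with CellTiter-Glo 16 h after compound addition.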
# [15] = qHTS screen for small molecules that inhibit ELG1-dependent DNA repair: Hit Confirmation with MMS Viability (AID 624251); note: potency is the fitted concentration of half-maximal effect; nearly all actives have a fitted effect of over 60% in size
# Method in brief: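 ELG1-luc HEK293T cells, 2,000/well, given compounds about 5 h after plating together with MMS at 10 µM final; viability measured by CellTiter-Glo after 16 h.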
# Tags give direction and shape of the fitted curve or compound fluorescence and quenching.
compound,measurement,setting,value
N[C@@H]1CCN(O)C1=O,Potency,[1],"inconclusive: 19 µM [inhibitor, single point]"
same,"activity change, negative = inhibition",[2],inconclusive: 12.9%
same,activation,[3],inconclusive: 11.4%
same,Potency,[4],inactive
same,"activity change, negative = inhibition",[5],inconclusive: -17.6% [phenotype inactive]
same,Potency,[6],"inconclusive: 0.0708 µM [inhibitor, full curve, poor fit]"
same,Potency,[7],inactive
COc1ccccc1-c1nccc(NCc2cnc(C)cn2)n1,Potency,[1],inactive
same,activation,[3],inactive: 3.22%
CCC/C=C(\CCC)C(NS(=O)(=O)c1cccc2cccnc12)c1ccc(-c2ccccc2)cc1 (stereo unspecified),Potency,[1],"inconclusive: 6.31 µM [activator, partial curve]"
same,Potency,[8],"inconclusive: 2.51 µM [inhibitor, full curve]"
CC(=O)N[C@H](c1ccccc1)[C@@]1(C)C[C@@H]1[C@@H](C)C(=O)Nc1ccc2ccccc2c1,Potency,[1],inactive
same,Potency,[8],active: 5.01 µM
c1cncc(CNc2ncn[nH]2)c1,Potency,[1],inactive
same,activation,[3],inconclusive: -5.58%
O=C1O/C(=C\Br)CC[C@@H]1c1cccc2ccccc12,Potency,[1],inactive
same,Potency,[2],"inconclusive: 2.82 µM [inhibitor, full curve, poor fit]"
same,Potency,[4],"inconclusive: 10 µM [inhibitor, partial curve]"
same,Potency,[5],active: 10 µM
same,Potency,[9],"inconclusive: 12.6 µM [activator, partial curve]"
same,Potency,[10],inactive
O=c1c(-c2ccc(Cl)cc2)nc2cncnc2n1Cc1ccccc1,Potency,[1],inactive
same,activation,[3],inactive: -4.75%
COc1cccc(-c2cc(NCc3cccs3)ncn2)c1,Potency,[1],"inconclusive: 12.6 µM [activator, single point]"
same,activation,[3],inactive: -6.23%
COc1ccccc1-c1cc(-n2ccnc2)ncn1,Potency,[1],inactive
same,Potency,[8],"inconclusive: 2 µM [inhibitor, full curve, poor fit]"
CC(=O)CC(=O)Nc1ccc2ccccc2c1,Potency,[1],inactive
same,Potency,[3],"inconclusive: 1 µM [inhibitor, single point]"
COc1c2ccoc2nc2c(OC)c(OC[C@H](O)C(C)(C)O)ccc12,Potency,[1],inactive
same,Potency,[11],inactive
same,activation,[3],inconclusive: -27%
O=c1c(-c2cccc(Cl)c2)nc2cncnc2n1Cc1ccccc1,Potency,[1],"inconclusive: 2 µM [activator, single point]"
same,Potency,[8],"inconclusive: 0.0398 µM [inhibitor, full curve, poor fit]"
c1ccc2c(c1)Cc1cc3cc4c(cc3nc1-2)OCO4,Potency,[1],"inconclusive: 7.94 µM [activator, partial curve, poor fit]"
same,Potency,[8],active: 1.26 µM
c1cc(CNCCN2CCNCC2)ccn1,Potency,[1],inactive
same,Potency,[11],"inconclusive: 3.98 µM [inhibitor, single point]"
same,activation,[3],inconclusive: -0.589%
N#[N+]c1ccc(Nc2ccccc2)cc1,Potency,[1],inactive
same,activation,[3],inconclusive: -10.9%
CCCCn1cnc2c(c(CC#N)nn2-c2ccccc2)c1=N,Potency,[1],"inconclusive: 10 µM [activator, partial curve]"
same,Potency,[8],"inconclusive: 6.31 µM [inhibitor, partial curve, poor fit]"
same,activation,[3],inactive: 16.2%
Nc1ccn([C@@H]2O[C@@H](CO)[C@@H](O)[C@H]2O)c(=O)n1,Potency,[4],"inconclusive: 1 µM [inhibitor, full curve, poor fit]"
CCCCCCCCCC[Si](C)(C)CCC(=O)N[C@@H](Cc1ccc(C)cc1)c1ccccc1,Potency,[9],inactive
Cc1cc(S(=O)(=O)Nc2nc(CN3CCOCC3)nc3sc4c(c23)CCCC4)ccc1F,Potency,[12],inactive
CCCCCn1c(=O)[nH]c2cc(C(=O)N3CCN(Cc4ccc5c(c4)OCO5)CC3)ccc2c1=O,Potency,[13],inactive
same,Potency,[12],"inconclusive: 0.792 µM [inhibitor, full curve, poor fit]"
COC(=O)c1ccc2c(=O)n(CCCCCC(=O)N3CCN(c4ccccc4)CC3)c(=O)[nH]c2c1,Potency,[13],active: 22.3 µM
same,Potency,[14],"inconclusive: 35.4 µM [cytotoxic, single point]"
OC(CNc1nc(-c2cccnc2)nc2ccccc12)c1ccccc1 (stereo unspecified),Potency,[13],inactive
same,Potency,[14],inactive
same,Potency,[15],"inconclusive: 22.3 µM [cytotoxic, partial curve, poor fit]"
CC1=C(C(=O)OCc2ccc3c(c2)OCO3)C(c2ccc(F)cc2)NC(=O)N1 (stereo unspecified),Potency,[13],"inconclusive: 1.41 µM [inhibitor, full curve]"
same,Potency,[15],"inconclusive: 9.97 µM [cytotoxic, full curve]"
